From PMC12040169 (PLOS Biology, 2025)
The other results are listed elsewhere or left out.

test system: T1, C. trachomatis L2/434/Bu expressing GFP (CTL2-GFP); design: species or system HeLa; C. trachomatis total inclusion area by high-content imaging, normalised to DMSO; conditions: total inclusion area; 28.5 h, 10 µM; inhibitor
T1 construct: L2/434/Bu GFP intracellular growth in HeLa cells
Procedure, shortened: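 Following bulk GFP and resorufin fluorescence reads, infected cells were fixed, Hoechst-stained and imaged on a high-content platform. Inclusion total area and number per well served as growth proxies; nuclei counts indicated host viability. MICs were derived as for the fluorescence assay.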

| Compound | % of control remaining |
| --- | --- |
| CCOC(=O)c1noc2nc(C)n(Cc3nc(-c4ccccc4)oc3C)c(=O)c12 [CBK294400] | 107.12 |
| Cc1cc(Cl)c(S(=O)(=O)Nc2cccnc2)cc1OCC(N)=O [CBK266523] | 125.528 |
| COc1ccccc1CN1CC[C@H]2[C@@H](C1)[C@H](c1ccsc1)CN2C(=O)c1ccccc1 [CBK285617] | 75.7793 |
| O=C(Nc1ccc(-c2nc3ccc(-c4nc5ccc(NC(=O)c6cccc7ccccc67)cc5[nH]4)cc3[nH]2)cc1)c1cccc2ccccc12 [CBK261161] | 95.521 |
| Cc1nn(C)cc1S(=O)(=O)N1CCn2cccc2C1C(C)C (centres unmarked) [CBK282787] | 87.7544 |
| COc1cc(/C=C2\SC(=S)N(c3cccc(C(=O)O)c3)C2=O)cc([N+](=O)[O-])c1O [CBK265281] | 99.2409 |
| O=C(NCc1cccc2ccccc12)N1CCCCC1CO (centres unmarked) [CBK156167] | 98.0988 |
| COc1ccc(-c2nnc3c4ccccc4c(C)nn23)cc1S(=O)(=O)NC(C)c1ccccc1 (centres unmarked) [CBK266605] | 121.571 |
| Cc1nn(-c2ccc(F)cc2)c2[nH]c(=O)c(CNC(C)(C)C)cc12 [CBK283120] | 103.243 |
| COc1cc(C)c(Cl)cc1S(=O)(=O)NCCCN1CCOCC1 [CBK269044] | 84.2319 |
| Cc1cccc(C)c1NC(=O)CC(CN1CCN(Cc2c(C)noc2C)CC1)C(=O)O (centres unmarked) [CBK286715] | 55.4718 |
| O=C(OCc1ccccc1)N1CCN(C(=O)c2cc3cc(Br)ccc3[nH]2)CC1 [CBK154991] | 56.8046 |
| O=C(Cc1c[nH]c2ccccc12)N1CCC2(CCCN(Cc3c(F)cccc3F)C2)C1 (centres unmarked) [CBK132031] | 92.1182 |
| CC(=O)OCC(=O)N1CCC(N(C)Cc2ccc(-c3ccc(S(C)(=O)=O)cc3)nc2)CC1 [CBK165268] | 21.0157 |
| O=C(Nc1ccc(O)cc1C(=O)O)c1ccc2c(c1)C(=O)N(Cc1ccco1)C2=O [CBK267418] | 92.9444 |
| N=C(N)Nc1nc(-c2ccccc2)c2cc(F)ccc2n1 [CBK267350] | 19.699 |
| CC(C)(C)OC(=O)N1CCC(OCc2cn(-c3ccc(S(C)(=O)=O)cc3)nn2)CC1 [CBK149478] | 87.9033 |
| CCCCNc1cc(C)nc2c(-c3ccccc3)cnn12 [CBK287792] | 113.282 |
| O=S(=O)(c1csc2ccccc12)N1CCOCC1 [CBK062401] | 103.158 |
| OCCC1CCCCN1c1cncc(C2CCOC2)n1 (centres unmarked) [CBK066127] | 68.2146 |
| O=C(O)/C=C/C(=O)NNC(=O)c1ccccc1O [CBK261789] | 110.262 |
| Cn1cncc1CN(CCCn1ccnc1)Cc1ccccc1F [CBK282960] | 87.0549 |
| Cc1cc(C)c2sc(NC(=O)c3ccccc3)nc2c1 [CBK287614] | 115.466 |
| CC(=O)N1CCOC(CNc2nc(C(C)(C)C)nc3c2cnn3C)C1 (centres unmarked) [CBK307469] | 52.1614 |
| Cc1nnc(Sc2cccc(C(F)(F)F)n2)s1 [CBK115222] | 104.4 |

| Compound | % of control remaining |
| --- | --- |
| COc1cccc(CNCCN2CCOCC2)c1O [CBK278183C] | 106.107 |
| CC(O)CNc1nccnc1-c1cccc(CO)c1 (centres unmarked) [CBK037056] | 105.805 |
| O=C1CCCN1CCCNc1nccnc1-c1ccc(CO)cc1 [CBK036860] | 54.6859 |
| Nc1nncn1C(=O)c1ccccc1SCc1ccccc1 [CBK270120] | 86.5152 |
| COc1ccc(NC(=O)Nc2cc3cccnc3c(Br)n2)c(C)c1 [CBK063294] | 108.619 |
| Cc1ccc(S(=O)(=O)CCc2noc(-c3n[nH]c4ccccc34)n2)cc1 [CBK288598] | 81.2154 |
| CN1CCN(c2nc(-c3cccc4ncccc34)cnc2N)CC1 [CBK063465] | 115.529 |
| CN(C)C(=O)CSc1cnc2ccccc2n1 [CBK086626] | 103.339 |
| CN1CCCC(NC(=O)CCCOc2ccccc2F)C1 (centres unmarked) [CBK282072] | 85.9871 |
| CC(=O)N1CCN(c2cncc(-c3ccc(O)cc3)n2)CC1 [CBK126948T] | 82.754 |
| CC1CCCN(CC(O)c2ccc3c(c2)CC(C)N3C(=O)C2CC2)C1 (centres unmarked) [CBK282125] | 104.939 |
| C#CCNC(=O)c1nn(-c2nc3ccccc3s2)c2ccccc12 [CBK048486] | 90.8718 |
| Oc1ccccc1/C=N/Nc1nnc(-c2ccccc2)c(-c2ccccc2)n1 [CBK262003] | 92.6274 |
| O=C(N[C@H]1CO[C@H]2[C@@H]1OC[C@@H]2Nc1nccc(-c2cccs2)n1)c1ccccc1 [CBK289516] | 76.5299 |
| COc1ccccc1Oc1ccc(S(=O)(=O)N2CCOCC2)cc1S(=O)(=O)N1CCOCC1 [CBK265176] | 105.295 |
| CN1CCN(C(c2ccccc2)C(O)C(=O)c2c[nH]c3ccccc23)CC1 (centres unmarked) [CBK267823] | 88.3636 |
| O=C1CC(C(=O)Nc2ccccn2)c2ccccc2N1 (centres unmarked) [CBK297771] | 91.4344 |
| Cc1nn(C)c(C)c1CN(C(=O)C(C)Oc1cccc(F)c1)C1CC1 (centres unmarked) [CBK281479] | 101.282 |
| CC(C)(C)OC(=O)N1CCN(CCC(=O)O)CC1 [CBK287143] | 104.028 |
| CC(=O)c1ccc(OCC(=O)Nc2cnc(-c3cccc(C)c3)c(-c3ccc(N)cc3)n2)cc1 [CBK036722] | 132.941 |
| O=C(NCCCc1nc2cc(F)ccc2[nH]1)[C@@H]1C[C@@H]2C=C[C@H]1C2 [CBK281665] | 93.2107 |
| O=C(O)c1ccc(S(=O)(=O)c2ccc3c(c2)C(=O)N(c2nccs2)C3=O)cc1 [CBK261189] | 97.1599 |
| CN1C2CCCC1CC(OC(=O)c1cccc3[nH]cnc13)C2 (centres unmarked) [CBK090162] | 105.878 |
| CCCc1[nH]n(-c2ccc([N+](=O)[O-])cc2)c(=O)c1/C=N/N1CCN(C)CC1 [CBK262781] | 114.483 |
| COc1ccc(Cl)cc1N/C=C(/C#N)c1nc(-c2cc3cc([N+](=O)[O-])ccc3oc2=O)cs1 [CBK263014] | 129.36 |
